The values that follow come from ChEMBL document CHEMBL4888484, “Replenishing the malaria drug discovery pipeline: Screening and hit evaluation of the MMV Hit Generation Library 1 (HGL1) against asexual blood stage Plasmodium falciparum ,using a nano luciferase reporter read-out” (2022).

Among all 150,000 compounds or so, about 540 (0.36%) showed an effect of 50% or more. Some of the results follow.

The subject of the test is Plasmodium falciparum. The test can be described thus: Primary screen in NF54 nanoGlo assay, in single point, at 2uM, 72h; a lower Z score goes with more inhibition. The format is functional, Erythrocyte. The settings on record: timepoint 72 hour.
A word on the % Inhibition: it is the drop in the measured response relative to a control, in per cent. Consider `O=C(N[C@H]1CCc2cn[nH]c2C1)N1CCC(Cc2ccccc2)CC1`, for which the “% Inhibition” value is given as -2% and the Z score was determined as 0.33.
As for `C[C@@H](c1ccccn1)N(C)CC(C)(CO)CO`, the “% Inhibition” value was -11% and the Z score is given as 1.71.
The corresponding values for `CC(C)NC(=O)N1CCN(c2cccc(C(F)(F)F)c2)C(=O)[C@@H]1C` are 1% and -0.25.
The corresponding values for `COC(=O)c1ncccc1NC(=O)Cc1noc2ccccc12` are -6% and 0.75.
The corresponding values for `FC(F)(F)CCc1noc([C@H]2CCc3nnc(-c4ccccc4)n3C2)n1` are -1% and 0.13.
`COc1c(C)cc(-c2ccc[nH]c2=O)cc1C`: the “% Inhibition” value worked out at 6% and the Z score is reported as -0.95.
The corresponding values for `c1cc2c(cc1CNCc1ccc3c(c1)OCO3)OCO2` are -3% and 0.3.
The corresponding values for `Cn1c(=O)[nH]c(=O)c2cc(S(=O)(=O)NC3CCCCC3)cnc21` are 10% and -1.61.
On to `O=C1NC(=O)C2(CCN(C(=O)[C@@H]3Cc4cc(Cl)ccc4O3)CC2)N1`, for which the “% Inhibition” value is 2% and the Z score was -0.31.
The corresponding values for `Cc1cc2ncc(NC(=O)c3cccc(C(F)(F)F)c3)cn2n1` are -18% and 2.29.
Consider `CCOC1CC(O)(CNC(=O)c2cccc(=O)[nH]2)C1(C)C` (stereo unspecified), for which the “% Inhibition” value was -4% and the Z score stood at 0.64.
The corresponding values for `COCCCN(C(=O)c1ccc(NC(C)=O)cc1)C1(C(=O)NCc2ccccc2)CCN(C(C)=O)CC1` are 0% and -0.07.
The corresponding values for `CNC(=O)c1nc(-c2cccc(OC)c2OC)n[nH]1` are -18% and 1.58.
As for `c1cc(-c2noc([C@H]3CNCC34CCCCC4)n2)co1`, the “% Inhibition” value is listed as -7% and the Z score was 1.36.
As for `COCCNC(=O)c1cn(C)c2c(c(C)nn2-c2ccc(F)cc2)c1=O`, the “% Inhibition” value is -1% and the Z score was 0.1.
The corresponding values for `O=C(N[C@H]1CCOC[C@@H]1O)c1ccncc1F` are -9% and 0.99.
The corresponding values for `Cc1ccc(-c2ccc(C(=O)NCCCc3nnn[nH]3)cc2)o1` are -8% and 0.79.
On to `CCc1ccc(C(=O)NC[C@]2(c3ccccc3)CCCOCC2)cc1`, for which the “% Inhibition” value is -1% and the Z score came out at 0.26.
For the molecule `COc1ccc(C)c2sc(N(CCCn3ccnc3)C(=O)Cc3ccc(F)cc3)nc12`, the “% Inhibition” value turned out to be 78% and the Z score is listed as -7.85.
The corresponding values for `COc1ccc(Oc2c(CN(CC3CC3)C(=O)C3CCCC3)c(-c3ccccc3)nn2C)cc1` are 3% and -0.32.
Regarding `COc1ccc(CN(Cc2nnn(C)n2)C2CCCCC2)cc1OC`, the “% Inhibition” value is recorded as -7% and the Z score is given as 1.05.
The corresponding values for `Cc1nnc(CN(C)C(=O)N[C@H]2CCc3c2ccc(Cl)c3Cl)s1` are -4% and 0.8.
The corresponding values for `Cc1noc(COC2CN(C(=O)NCc3ccc4[nH]c(C)c(C)c4c3)C2)n1` are -16% and 2.33.
The corresponding values for `CC#CC(=O)N1CCC2(CC1)c1ccccc1[C@@H](NC(=O)CC)[C@@H]2OCc1cccnc1` are -1% and 0.21.
With `CCOC(=O)c1ncn(C2CCCCC2)c1N`, the “% Inhibition” value is given as 37% and the Z score is -4.22.
The corresponding values for `CC1CCN(C(=O)CCC(N)c2ccccc2)C1C` (stereo unspecified) are -13% and 1.28.
The corresponding values for `C[C@@H]1CN(CCCNc2ccncn2)C[C@H](C)O1` are -5% and 0.8.
The corresponding values for `Cc1ncc(S(=O)(=O)N2C[C@@H](C(C)(C)C)c3ccccc32)s1` are 25% and -3.27.
In the case of `C[C@@H](C1CCN(C)CC1)N(C)S(=O)(=O)c1ccc(Cl)s1`, the “% Inhibition” value was -3% and the Z score worked out at 0.24.
As to `Cn1ccnc1[C@@]1(CNC(=O)c2ccc(C(F)(F)F)cc2)NC(=O)NC1=O`, the “% Inhibition” value was -18% and the Z score is recorded as 1.97.
For the molecule `COC(=O)NCC(=O)N(Cc1cc(F)ccc1F)C1CCCC1`, the “% Inhibition” value was determined as 13% and the Z score is -1.42.
For `O=C(N[C@H]1CCCc2ccccc21)c1ccccc1OCc1ccccc1`, the “% Inhibition” value is on record as -6% and the Z score amounted to 0.94.
The corresponding values for `CCc1noc(C)c1CNC(=O)c1cc(=O)[nH]c2ncn(C)c12` are -6% and 0.68.
The corresponding values for `CCNC(=O)COc1c(Br)cccc1OC` are -16% and 2.99.
The corresponding values for `CCCC(O)(CCC)CC(=O)NCc1ccc2c(=O)cc[nH]c2c1` are -8% and 1.43.
As for `Cc1cc(Br)ccc1N(C)C(=O)c1ccn(C)c(=O)c1`, the “% Inhibition” value is recorded as -12% and the Z score is given as 1.33.
The corresponding values for `Cc1c(Cl)cccc1S(=O)(=O)Nc1cnc(N(C)C)c(C(=O)O)c1` are -3% and 0.25.
The corresponding values for `Cc1ccc(NC(=O)N2CCCN(C3=Nc4ccc(C(F)(F)F)cc4Oc4ccccc43)CC2)cc1` are -9% and 1.43.
As to `CCOc1cc(CNCCCOC)cc(Cl)c1OC`, the “% Inhibition” value is on record as -9% and the Z score came to 1.33.
The corresponding values for `Cc1csc([C@@H](NC(=O)COc2cc(C)on2)C(F)(F)F)n1` are -6% and 1.08.
Consider `COc1cccc(CN2CC=C(C(=O)N3CCN(c4cc(C)ccc4C)CC3)CC2)c1`, for which the “% Inhibition” value is -5% and the Z score came to 0.98.
Take `Cc1ccc2c(c1)[C@H]1OCC[C@H]1C(c1ccccc1)N2` (stereo partly specified): the “% Inhibition” value worked out at 0% and the Z score is recorded as 0.08.
The corresponding values for `O=C(NCCC(F)(F)F)c1cc(Cl)cc(F)c1Br` are -4% and 0.63.
